Assay results reported in PubChem BioAssay AID1347120 (National Center for Advancing Translational Sciences (NCATS), 2019).
In all, about 390,000 compounds went through this assay and about 930 (0.24%) were called active. Inconclusive results, whose numbers are uncertain, are shown with a selection of clear calls. The call rests on the fitted dose curve; in most records, active means well fitted activation curve with a large enough effect; inconclusive means small, poorly fitted or top-dose-only effect; inactive means no such curve, though single readings can be large or run the other way. Potencies beside an inconclusive call are fits to weak or partial responses and may not hold up.

Assay: qHTS for Suppressors of FUS Proteinopathy: Primary screen using FUS-linked yeast assay; further: nearly all actives have a fitted effect of over 55% in size
Details: S. cerevisiae FUS-expressing, OD600, 24 h; Potency: growth rescue; series mostly up to 76.6 µM
How it was run: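 Compound concentration series was pinned onto galactose-induced FUS-expressing yeast seeded at OD 0.005. Plates sat 24hr at 30C; absorbance at 600 nm gave growth. DMSO served as background control.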
Potency means the concentration at half of the fitted maximal effect; tags describe the fitted curve by direction and shape.

| SMILES | Potency |
| --- | --- |
| CCCNC(=O)N1CCN(S(=O)(=O)c2ccc(C)c(C)c2)CC1 | inconclusive: 11.2 µM [activator, single point] |
| Cc1ccc(Cl)cc1N1CCN(C(=O)c2noc(C(C)C)c2[N+](=O)[O-])CC1 | inconclusive: 25.1 µM [activator, partial curve, poor fit] |
| COC(=O)[C@]12C[C@H](CC(=O)N3CCOCC3)C(=O)N(Cc3cccc4ccccc34)C1=C[C@H](COCc1ccccc1)O[C@@H]2C | inconclusive: 35.5 µM [activator, single point] |
| CCN(C(=O)CCc1nnc2ccc(NCc3ccco3)nn12)c1ccccc1 | inconclusive: 39.8 µM [activator, single point] |
| COc1ccc(C(=O)N/C(=C/c2ccco2)C(=O)N2CCCCCC2)cc1 | inconclusive: 3.55 µM [activator, full curve] |
| COc1ccc(C(=O)NC2(C(F)(F)F)C(=O)N(Cc3ccco3)C3=C2C(=O)CC(C)(C)C3)cc1OC (stereo unspecified) | inconclusive: 31.6 µM [activator, single point] |
| CCOc1ccccc1NC(=O)Nc1nnc(N2CCCC(C)C2)s1 (stereo unspecified) | inactive |
| CC1(OC(=O)c2ccco2)C(=O)C=C2C=C(C3CC3)OC=C2C1=O (stereo unspecified) | inactive |
| Cc1cccc2cc(CN(Cc3cccs3)Cc3nnnn3Cc3ccccc3)c(=O)[nH]c12 | inconclusive: 35.5 µM [activator, single point] |
| COc1ccc(OC)c(CN2C(=O)CN(S(C)(=O)=O)CC2(C)c2nnnn2C2CCCC2)c1 (stereo unspecified) | inactive |
| CC1Cc2ccccc2N1C(=O)CSc1nn2c(=O)c(C(C)(C)C)nnc2s1 (stereo unspecified) | inconclusive: 15.8 µM [activator, partial curve] |
| O=c1[nH]c(C2CCN(S(=O)(=O)c3ccc(C(F)(F)F)cc3)CC2)nc2c1nnn2Cc1cccc(F)c1 | inconclusive: 31.6 µM [activator, partial curve, poor fit] |
| CN(C(=O)CSc1nc(-c2ccccc2)no1)c1ccc(F)cc1 | inactive |
| COc1cccc(-c2sc3cc(OC)c(OC)cc3c2-c2ccc(OCCN3CCCCC3)cc2)c1 | inconclusive: 20 µM [activator, single point] |
| Cc1ccc(-c2c3c(=O)n(C)c(=O)n(C)c3c3n2-c2ccccc2NC3c2ccc(C)cc2O)cc1 (stereo unspecified) | inconclusive: 28.2 µM [activator, partial curve, poor fit] |
| C=CCN1C=C2C(=O)C(C)(OC(=O)CCc3ccccc3)C(=O)C=C2C=C1c1ccc(C#N)cc1 (stereo unspecified) | inconclusive: 35.5 µM [activator, single point] |
| COc1cc2c(cc1OC)[C@@H](NC(=O)Cc1ccc(F)cc1)[C@H](OCc1ccccc1)C2 | inconclusive: 50.1 µM [activator, single point] |
| Cc1ccc(N2C(=O)C3CC(c4ccccc4)=C4C5C=CC(C6C(=O)N(c7ccc(C)cc7)C(=O)C56)C4C3C2=O)cc1 (stereo unspecified) | inconclusive: 15.8 µM [activator, partial curve, poor fit] |

| SMILES | Potency |
| --- | --- |
| CC(C)(C)c1ccc(/C=C(\c2nc3ccccc3[nH]2)S(=O)(=O)c2ccccc2)cc1 | inconclusive: 17.8 µM [activator, partial curve, poor fit] |
| C[C@@H]1CN([C@H](C)CO)S(=O)(=O)c2ccc(-c3cccc(C#N)c3)cc2O[C@H]1CN(C)C(=O)Nc1cc(F)ccc1F | inconclusive: 35.5 µM [activator, single point] |
| OC(c1ccccc1)(c1ccccc1)C1CCN(CCCOc2ccc(Cl)cc2)CC1 | inactive |
| Cc1cc(Cl)ccc1OCC(=O)N(Cc1ccco1)Cc1ccccc1F | inconclusive: 12.6 µM [activator, partial curve, poor fit] |
| Cc1cc(C)cc(NC(=O)Nc2ccc(S(=O)(=O)Nc3cc(C)on3)cc2)c1 | inconclusive: 22.4 µM [activator, partial curve] |
| Cc1nn(C)c(C)c1/C=C/C(=O)c1ccc(Cl)cc1Cl | inactive |
| CS(=O)(=O)N[C@@H]1C[C@@H]2O[C@@H](CO)CC[C@@H]2O[C@@H]1CCc1ccc(/C=C/c2ccccc2)cc1 | inconclusive: 50.1 µM [activator, single point] |
| Cc1ccc(/C=C/C(=O)c2ccc(O)cc2)cc1 | inconclusive: 10 µM [activator, single point] |
| Cc1cccc(N(CC(=O)Nc2ccccc2C(F)(F)F)S(=O)(=O)c2ccccc2)c1C | inconclusive: 28.2 µM [activator, single point] |
| O=C(c1cccs1)n1ccc2ccc(-c3ccc4ccn(Cc5ccccc5)c4c3)cc21 | inconclusive: 28.2 µM [activator, single point] |
| CCCCOCCCNC(=O)C[C@H]1C[C@@]2(C(=O)OC)C(=C[C@H](C3CCCC3)O[C@@H]2C)N(CCc2ccc(OC)c(OC)c2)C1=O | inconclusive: 17.8 µM [activator, partial curve, poor fit] |
| COc1ccc(C)cc1NC(=O)c1cc2c(=O)n3cccc(C)c3nc2s1 | inactive |
| CC(=O)Nc1ccc(S(=O)(=O)Nc2nc(CN3CCOCC3)nc3sc4c(c23)CCCC4)cc1 | inconclusive: 28.2 µM [activator, single point] |
| Cc1ccccc1NC(=O)OCCN1CCCC12CCC(c1ccccc1)CC2 (stereo unspecified) | inactive |
| CCCNC(=O)c1ccc(N2CCC3(CC2)CC(c2ccccc2)=NO3)c(NC(=O)c2cccc(OC)c2)c1 | inconclusive: 6.31 µM [activator, partial curve] |
| COc1ccc(-c2cc(NC(C)=O)c3ncc(-c4cccc(C(F)(F)F)c4)n3c2)c(OC)c1 | inconclusive: 35.5 µM [activator, single point] |
| O=C(CN1CCc2onc(-c3ccc(-n4cc(COc5ccc([N+](=O)[O-])cc5)nn4)cc3)c2C1=O)N1CCOCC1 | inactive |
| C#CCOCCOCCOCCNc1nc(N2CCN(C(=O)[C@H](CCC(=O)O)n3cc(C(N)CC(C)C)nn3)CC2)nc(N2CCN(C(=O)[C@H](Cc3cc4ccccc4[nH]3)n3cc(C(N)[C@H](C)CC)nn3)CC2)n1 (stereo partly specified) | inconclusive: 28.2 µM [activator, single point] |
